Data: the supplement of paper PMC9446081
In all, about 39,000 compounds went through this assay and about 220 (0.56%) showed activity. The list shows a part of the results.

Test system: Escherichia coli K-12 BW25113
Assay: relative growth (OD600 normalised to plate interquartile mean) (fraction); higher = less growth inhibition, active = 0.2 or less
Details: 50 µM; LB; incubation time: overnight (16-24 h)
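Note: static incubation at 37 °C against the wild-type strain, values averaged over two biological replicates.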

| SMILES | relative growth |
| --- | --- |
| CCN(CC)CCNC(=O)C(=O)NC1CC1 | inactive: 1.02 |
| CO[C@H]1CN(C)C(=O)c2cc(NC(=O)c3ccc(F)cc3)ccc2OC[C@H](C)N(C(=O)CN(C)C)C[C@H]1C | inactive: 1.01 |
| C[C@@H]1CCCCO[C@H](CN(C)S(=O)(=O)c2ccc(F)cc2)[C@H](C)CN([C@@H](C)CO)C(=O)c2cc(NS(C)(=O)=O)ccc2O1 | inactive: 1.01 |
| C=C1CC[C@H]2[C@H](CN)[C@@H]([C@@]3(C)CC[C@H](O)C[C@@H]3CO)CC[C@]12C | inactive: 1 |
| C[C@H](CO)N1C[C@H](C)[C@@H](CN(C)C)Oc2cc(C#CCN(C)C)ccc2S1(=O)=O | inactive: 0.994 |
| C[C@@H]1CN([C@H](C)CO)C(=O)c2cccc(NC(=O)c3ccc(-c4nccs4)cc3)c2O[C@@H]1CN(C)C(=O)Nc1ccc2c(c1)OCO2 | inactive: 0.98 |
| Cc1cccc(S(=O)(=O)N2C[C@H](O)COC[C@H]3O[C@@H](CC(=O)N4CCN(C)CC4)CC[C@@H]32)c1 | inactive: 0.999 |
| C[C@H]1CN([C@@H](C)CO)C(=O)Cc2cc(NC(=O)CCN3CCOCC3)ccc2O[C@H]1CN(C)Cc1ccc(C(=O)Nc2ccccc2N)cc1 | inactive: 1.03 |
| CC1(C)CC(=O)C(=CNC(CO)(CO)CO)C(=O)C1 | inactive: 0.994 |
| C[C@H](CO)N1C[C@H](C)[C@H](CN(C)Cc2ccc(C(=O)O)cc2)Oc2ccc(NS(C)(=O)=O)cc2C1=O | inactive: 0.986 |
| CC(C)NC(=O)Nc1ccc2c(c1)C(=O)N([C@H](C)CO)C[C@H](C)[C@H](CN(C)Cc1ccccc1)OCCCC[C@H](C)O2 | inactive: 1.01 |
| CC[C@H]1CN(C)N1C(=O)[C@@H]1CCCO1 | inactive: 1.01 |
| COc1cccc(C#Cc2ccc3c(c2)O[C@H](CN(C)C(=O)c2ccccn2)[C@@H](C)CN([C@@H](C)CO)S3(=O)=O)c1 | inactive: 1.08 |
| C[C@@H]1CN([C@@H](C)CO)C(=O)c2cc(NC(=O)CCCN(C)C)ccc2O[C@@H]1CN(C)S(=O)(=O)c1cccs1 | inactive: 1 |
| COc1ccc(CN(C)C[C@@H]2OCCCC[C@@H](C)Oc3ccc(NS(=O)(=O)c4ccc(Cl)cc4)cc3C(=O)N([C@H](C)CO)C[C@H]2C)cc1 | inactive: 1.01 |
| C[C@@H]1CN([C@H](C)CO)C(=O)c2cc(NC(=O)C3CC3)ccc2O[C@H]1CN(C)C(=O)Nc1ccc2c(c1)OCO2 | inactive: 1.01 |
| CC(C)NC(=O)N[C@H]1CC[C@@H](CCN)O[C@H]1CO | inactive: 0.98 |
| C[C@H](CO)N1C[C@H](C)[C@@H](CN(C)S(=O)(=O)c2ccc(F)cc2)Oc2ccc(NC(=O)CCCN(C)C)cc2CC1=O | inactive: 1.01 |
| C[C@@H]1CN([C@@H](C)CO)C(=O)c2cc(NC(=O)Cn3cnnn3)ccc2O[C@@H]1CN(C)Cc1ccncc1 | inactive: 1 |

| SMILES | relative growth |
| --- | --- |
| C[C@H]1CC=CC[C@H](c2ccc3c(c2)OCO3)NC(=O)[C@H](Cc2ccccc2)N(C)C(=O)c2ccccc2O1 | inactive: 1.01 |
| CC(C)CC#Cc1cnc2c(c1)C(=O)N([C@H](C)CO)C[C@H](C)[C@H](CN(C)C(=O)CCN1CCCCC1)O2 | inactive: 1.02 |
| C[C@H](CO)N1C[C@H](C)[C@@H](CN(C)C(=O)Nc2ccc(F)cc2)OCCCC[C@H](C)Oc2ccc(NC(=O)C3CCCCC3)cc2C1=O | inactive: 1.01 |
| CC(C)N1C[C@@H](C)[C@H](CN(C)Cc2ccc(OCCCC(F)(F)C(F)(F)C(F)(F)C(F)(F)C(F)(F)C(F)(F)C(F)(F)C(F)(F)F)cc2)Oc2c(NC(=O)c3ccncc3)cccc2C1=O | inactive: 1.01 |
| C[C@H]1CCCCO[C@H](CN(C)Cc2ccccc2)[C@@H](C)CN([C@@H](C)CO)C(=O)c2cc(NS(=O)(=O)c3ccc(F)cc3)ccc2O1 | inactive: 1.01 |
| COc1ccc(NC(=O)Nc2ccc3c(c2)C(=O)N([C@@H](C)CO)C[C@H](C)[C@@H](CN(C)S(=O)(=O)c2cn(C)cn2)O3)cc1 | inactive: 0.989 |
| C[C@@H]1CN([C@@H](C)CO)C(=O)Cc2cc(NS(=O)(=O)c3ccc(Cl)cc3)ccc2O[C@@H]1CN(C)Cc1ccc(C(F)(F)F)cc1 | inactive: 1.03 |
| CC(=O)NCCCC[C@@H]1NC(=O)[C@@H]2C[C@H](C(=O)NCCCCN(C)C)[C@H](c3cccc(OCCO)c3)N2C1=O | inactive: 0.998 |
| O=C(O)c1csc2ccccc12 | inactive: 0.988 |
| COc1cccc(NC(=O)N[C@@H]2C=C[C@@H](CC(=O)N3CCOCC3)O[C@H]2CO)c1 | inactive: 0.9 |
| C[C@H]1CN([C@@H](C)CO)C(=O)c2cccc(NC(=O)Nc3ccc(C(F)(F)F)cc3)c2O[C@H]1CN(C)S(=O)(=O)c1ccc(F)cc1 | inactive: 0.841 |
| C[N+](C)(C)CCCCNC(=O)[C@@H]1C[C@@H]2C(=O)N[C@@H](Cc3ccccc3)C(=O)N2[C@@H]1c1cccc(OCCO)c1 | inactive: 0.982 |
| COc1ccc(S(=O)(=O)N(C)C[C@@H]2Oc3ccc(NC(=O)CCCN(C)C)cc3CC(=O)N([C@@H](C)CO)C[C@@H]2C)cc1 | inactive: 1.01 |
| C[C@H](CO)N1C[C@H](C)[C@@H](CN(C)CC2CCCCC2)OCCCC[C@H](C)Oc2ccc(NC(=O)Nc3ccc(C(F)(F)F)cc3)cc2C1=O | inactive: 1 |
| COCCCOc1ccnc(CS(=O)c2nc3ccccc3[n-]2)c1C.[Na+] (stereo not drawn) | inactive: 1.02 |
| COc1ccc(NC(=O)Nc2ccc3c(c2)C(=O)N([C@@H](C)CO)C[C@@H](C)[C@H](CN(C)C(=O)Nc2ccc(C(F)(F)F)cc2)O3)cc1 | inactive: 1 |
| Cc1ccc(S(=O)(=O)N[C@@H](Cc2ccccc2)C(=O)NCCCn2cc(CN3C(=O)COC[C@H]3c3ccccc3)nn2)cc1 | inactive: 0.982 |
| C[C@@H]1CCCCO[C@H](CN(C)Cc2ccc(Cl)c(Cl)c2)[C@@H](C)CN([C@H](C)CO)C(=O)c2cc(NS(=O)(=O)c3cn(C)cn3)ccc2O1 | inactive: 0.993 |
| Cc1noc(C)c1NC(=O)Nc1ccc2c(c1)C(=O)N([C@@H](C)CO)C[C@@H](C)[C@@H](CN(C)Cc1ccc(C(F)(F)F)cc1)OCCCC[C@H](C)O2 | inactive: 0.99 |
